Hit rate of the full screen: of about 150,000 compounds, about 540 (0.36%) showed an effect of 50% or more. The list shows a part of the results.
The compounds below were run on Plasmodium falciparum (assay: Primary screen in NF54 nanoGlo assay, in single point, at 2uM, 72h; a lower Z score goes with more inhibition). Conditions: timepoint 72 hour.
Assay type: functional, Erythrocyte

SMILES | % Inhibition | Z score
CC(C)n1cccc1C(=O)NCCCc1nnc2ccccn12 | -5% | 0.87
Cc1ncoc1CNC(=O)N1CCC[C@@]2(C=Cc3ccccc3O2)C1 | -11% | 1.87
O=C(CNC(=O)OCc1ccccc1)Nc1nc2c(s1)C(=O)NCCC2 | -8% | 1.67
Oc1ccc(-c2noc(-c3cnccn3)n2)cc1 | 33% | -3.75
O=C(NC[C@]1(O)CCOC1)C(=O)Nc1ccon1 | -7% | 1.26
COc1ccc(CC2(CCC(=O)N(C)C(C)c3cccs3)CCC(=O)N2)cc1 (stereo not drawn) | -9% | 1.3
COc1ccc(Cl)cc1C(=O)Nc1ccc(N2CCCCC2=O)c(OC)c1 | 3% | -0.45
Cc1nn([C@H]2CCS(=O)(=O)C2)c(C)c1N1CCN(C(=O)c2nc3ccccc3s2)CC1 | -11% | 1.92
OC1CCCCC1N1CCC(NCc2cc(Cl)cs2)CC1 (stereo not drawn) | -16% | 1.71
Cc1c(C(=O)NC2CCC(C(F)F)CC2)[nH]c(=O)c2ccccc12 (stereo not drawn) | -1% | 0.24
Cc1cc(C(=O)NS(=O)(=O)Cc2ncon2)cc(C)c1F | -5% | 0.98
COc1ccc(-c2cc(C(F)(F)F)c3c(-c4ccc(Cl)cc4)nn(-c4ccc(C)c(C)c4)c3n2)cc1OC | -9% | 1.16
CCN1C[C@@H](COC(=O)c2ncsc2-c2ccccc2)CC1=O | -12% | 1.29
CC(C)Cc1noc(CN(C)Cc2cc(C#N)n(C)c2)n1 | -19% | 3.58
COc1ccc(CC(=O)N2CCCS(=O)(=O)C[C@H]2C2CC2)nc1 | -1% | 0.08
CCN(c1noc(C2CCN(C(=O)C(C)C)CC2)n1)C(C)C | -18% | 2.32
COC(=O)c1cccc(N2CC(=O)N(CCn3cc(C)cn3)C2=O)c1 | -9% | 0.92
Cn1cc(CC(=O)OC2C3CCCOC3C2(C)C)cn1 (stereo not drawn) | -16% | 2.24
COC(=O)N1CCCC[C@H]1C(=O)N(C)Cc1noc(C2CC2)n1 | -3% | 0.52
NC(=O)[C@@H]1CC(C(=O)Nc2ccccc2C(=O)NCCc2ccccc2)=NN1c1ccccc1 | 6% | -0.83
CN(C)S(=O)(=O)N(CC#N)Cc1cccc(C#N)c1 | -12% | 1.5

SMILES | % Inhibition | Z score
Cc1ncsc1-c1nc(CC(=O)NC2CCCCC2)no1 | -2% | 0.26
CC(C)n1cc(C#N)c(NC(=O)N(C)C[C@H](C)c2nccs2)n1 | 5% | -0.58
CC(=O)N1CC(C(=O)N2CCN(Cc3ccccc3)CC2)CC(c2cccc(C)c2)C1 (stereo not drawn) | 2% | -0.33
CC=C(C)C(=O)NS(=O)(=O)Cc1cc(Cl)ccc1F | 29% | -3.87
COc1ccc(-n2cccc2-c2ncc[nH]2)cc1 | 5% | -0.42
COc1ccc(NC(=O)Cc2nc(Cc3ccccc3F)n[nH]2)cc1 | -13% | 1.68
CN(C)C(=O)c1cncc(N[C@H]2CCCC[C@@H]2c2ccccc2)n1 | -5% | 0.92
O=C1CC[C@]2(C(=O)NC3CCN(Cc4ccccc4)CC3)CCC=C2N1C1CCCC1 | -5% | 0.54
Cn1cnnc1CN1C[C@@H](C(F)(F)F)OC(C)(C)C1 | -1% | 0.13
O=C(NCCN1CCCCC1)c1cc2n(n1)CCN(Cc1ccccc1)C2=O | -3% | 0.38
Cc1nc(CNc2cncc(OCCO)n2)c(C)s1 | -9% | 1.16
COc1nc2c(cc1C(=O)NCCn1ccnn1)C(=O)N(C1CCCC1)C2 | -20% | 4.14
CCc1nnc(CN(CC)C[C@H]2COc3ccccc3O2)o1 | 4% | -0.53
O=c1ccn(-c2ccccc2)nc1-c1nc(-c2cccc(F)c2)no1 | -2% | 0.32
C[C@@H](C(=O)N(C)C)S(=O)(=O)Nc1cc(Cl)ccc1C#N | 2% | -0.25
Nc1ccnc(CN(Cc2ccccc2F)c2ccc(F)cc2)n1 | 3% | -0.53
CCOc1cc(Cl)ccc1C(=O)N[C@@H](C)CC#N | -9% | 1.33
CN1CCN(S(=O)(=O)N2CCN(CCC(F)(F)F)CC2)CC1 | -13% | 1.26
Cc1nn(C)c(C)c1C(=O)C(=O)NCc1ccccc1OCC1CC1 | -13% | 1.99
CCc1nc2ccccc2n1[C@@H](CC)C(=O)NCCc1c[nH]cn1 | -13% | 1.61
Cc1oc(-c2ccccc2)c(C(=O)N[C@@H](CC(F)F)C(=O)O)c1C | 3% | -0.31

SMILES | % Inhibition | Z score
CCS(=O)(=O)CCn1cc(C)c(N)n1 | -11% | 1.52
Cc1nn(CCCC(=O)NCCc2ccccc2)c(=O)c2nccn12 | -20% | 2.6
CCn1ccnc1Cn1ccc(-c2cccc(-c3ncccc3C#N)c2)n1 | 10% | -1.24
O=C(CN1N=C(c2ccccc2F)c2cc(Cl)ccc2S1(=O)=O)Nc1ccc(F)cc1 | -26% | 2.43
CC(C)c1cc(C(=O)N(C)c2ccc3c(c2)CCO3)n(C)n1 | -13% | 1.29
COCCN(CC(=O)Nc1ccc(F)cc1Cl)CC(F)(F)F | -17% | 2.7
O=C(c1ccco1)N1CCN(C(=O)c2nc(N3CCCC3)nc3c2CCCC3)CC1 | -25% | 2.18
CCc1cc(C(=O)N2CCN(C/C=C/c3ccccc3)CC2)cc(=O)[nH]1 | 0% | 0.04
COc1ccc(S(=O)(=O)N2Cc3cnc(N4CCOCC4)nc3C2)cc1C | -15% | 2.92
CCCn1nc(C)cc1CN(C)c1ncc(NS(=O)(=O)c2ccc(F)cc2)cc1C(=O)O | -14% | 1.36
CCCN(Cc1cc(NC(=O)NCc2ccccc2)ccc1N(C)C)S(=O)(=O)c1ccc(F)cc1 | -6% | 0.71
CC(C)COC1CCN(c2ccc(C(F)(F)F)nn2)CC1 | 0% | 0.02
CCc1ncc2c(n1)CN(C(=O)[C@H](C)NS(C)(=O)=O)C2 | -1% | 0.09
Nc1cncc(-n2cnc3ccccc32)c1 | 9% | -0.8
CCn1c(=O)c(CCC(=O)NC2CCCC2)nc2c(C)nn(-c3ccccc3)c21 | -17% | 2.46
Cc1cc(S(=O)(=O)N2CC(O)(C3CC3)C2)sc1C | -9% | 1.2
CCn1cc(C(=O)NC[C@H](C)Cn2ccnc2)cn1 | -4% | 0.66
Cc1cccc(Cn2c(C(=O)NC[C@@]3(C)CCCO3)cc3cc(NC(=O)c4ccccc4F)ccc32)c1 | -9% | 1.1
O=C([C@@H]1CC=CCC1)N1CCC(c2nnc(C(F)(F)F)o2)CC1 | -3% | 0.52
Cc1ccc([C@@H](C)NC(=O)NCCC2(O)CCOCC2)cc1F | -6% | 0.84
Cn1nnc(CNC(=O)C[C@@H]2C=CCC2)n1 | -3% | 0.56

SMILES | % Inhibition | Z score
COCC1=CCN(C(=O)Nc2cnc(N3CCCC[C@@H]3C)c(C)c2)CC1 | -5% | 0.49
COCc1ccc(CNC(C)C2CCCOC2)cc1 (stereo not drawn) | 4% | -0.71
CC(C)OC(=O)[C@H](C)NC(=O)C1CCC1 | -1% | 0.13
Cc1c(-c2nnc(C(=O)NCc3ccccc3)o2)oc2c(C)cccc12 | -8% | 1.22
CCN1C[C@@H](S(=O)(=O)NCC(C)(C)CCCO)CC1=O | 2% | -0.35
COC[C@@H](O)CN(Cc1ccco1)Cc1c(C)nn(-c2ccccc2)c1Oc1ccccc1 | -13% | 1.51
CC(C)(C)CC(=O)N1CC[C@H]2NC(=O)N(Cc3ccccc3)C(=O)[C@H]21 | 32% | -3.58
CN1CCC(Nc2cc(-n3cccn3)nc(N)n2)C1c1ccccc1 (stereo not drawn) | -5% | 0.92
COc1cc(CN(C)[C@H]2CCc3nnc(C)n3CC2)ccc1F | -10% | 1.55
Cc1ccc(CNC(=O)Cn2c(=O)n(-c3ccc(C)c(F)c3)c(=O)c3sccc32)cc1 | -9% | 1.04
CCn1ccc2c(CN3C[C@@H]4c5ccccc5OC[C@]4(CO)C3)cccc21 | -9% | 1.11
Cc1ccnc(NC(=O)C(F)(F)[C@@]2(F)OC(F)(F)C(F)(F)C2(F)F)c1 | 7% | -0.92
Cc1cc(C(=O)NCc2nc(CN3CCCCC3)no2)c(C)n1C | -5% | 0.92
COc1ccc(C(=O)NC2(CO)CC(C)CC(C)(C)C2)cc1-c1ccccn1 (stereo not drawn) | -4% | 0.42
Cc1cccc(-n2nnnc2C2(N(C)C)CCCC2)c1 | -5% | 0.65
c1ccc2[nH]c(CCc3nc(C[C@H]4CCCO4)no3)nc2c1 | 6% | -1.12
CCCc1nnc2sc([C@H]3CCOC3)nn12 | 11% | -1.56
CCOC(=O)c1c(C)[nH]c(C)c1-c1csc(-c2cccc(OC)c2)n1 | -7% | 1.35
Cc1csc(NC(=O)C[C@H]2CCS(=O)(=O)C2)n1 | -4% | 0.56
CC(C)N1CCC(Nc2nnc(Cc3ccccc3)o2)CC1 | -6% | 0.68
Cc1ccc(S(=O)(=O)Nc2nnc(-c3cc(C)oc3C)o2)c(C)c1 | -11% | 1.11

From ChEMBL document CHEMBL4888484, “Replenishing the malaria drug discovery pipeline: Screening and hit evaluation of the MMV Hit Generation Library 1 (HGL1) against asexual blood stage Plasmodium falciparum ,using a nano luciferase reporter read-out” (2022)
